# Measured values from the supplement of paper PMC8728848.
# Some of the results follow.
# B1: AT1G15820(NC) (Arabidopsis thaliana) (protein)
# chain: MAMAVSGAVLSGLGSSFLTGGKRGATALASGVGDAIAPFSFGSLLGTQLLLMGWVESKRWVDFFNPDSQSVEWATPWSKTAENFANYTGDQGYPGGRFFDPLGLAGKNRDGVYEPDFEKLERLKLAEIKHSRLAMVAMLIFYFEAGQGKTPLGALGL
# Columns and labels:
# Experiment in all cases: glycan array binding signal (z-score within array); higher = stronger binding
# Conditions in all cases: glycan notation: IUPAC condensed, linker removed
# [1] = biological target: Neu5Ac(a2-8)Neu5Ac
# Procedure, shortened: (§1)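 Negative Z-scores can be read as non-binding. The Z-score is calculated within each array and then averaged across arrays of one protein sequence at different concentrations or buffers and across linkers. Arrays, 3228 in all, were curated from the Consortium for Functional Glycomics database and kept only where the protein sequence was available.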
# [2] = biological target: Neu5Ac(a2-8)Neu5Ac(a2-3)Gal(b1-3)GalNAc(b1-4)[Neu5Ac(a2-3)]Gal(b1-4)Glc
# Procedure, shortened: as §1
# [3] = biological target: Neu5Ac(a2-8)Neu5Ac(a2-3)Gal(b1-3)GalNAc(b1-4)[Neu5Ac(a2-8)Neu5Ac(a2-3)]Gal(b1-4)Glc
# Procedure, shortened: as §1
# [4] = biological target: Neu5Ac(a2-8)Neu5Ac(a2-3)Gal(b1-4)Glc
# Procedure, shortened: as §1
# [5] = biological target: Neu5Ac(a2-8)Neu5Ac(a2-3)Gal(b1-4)GlcNAc
# Procedure, shortened: as §1
# [6] = biological target: Neu5Ac(a2-8)Neu5Ac(a2-3)[Gal(b1-3)GalNAc(b1-4)]Gal(b1-4)Glc
# Procedure, shortened: as §1
# [7] = biological target: Neu5Ac(a2-8)Neu5Ac(a2-3)[GalNAc(b1-4)]Gal(b1-4)Glc
# Procedure, shortened: as §1
# [8] = biological target: Neu5Ac(a2-8)Neu5Ac(a2-8)Neu5Ac
# Procedure, shortened: as §1
# [9] = biological target: Neu5Ac(a2-8)Neu5Ac(a2-8)Neu5Ac(a2-3)Gal(b1-4)Glc
# Procedure, shortened: as §1
# [10] = biological target: Neu5Ac(a2-8)Neu5Ac(a2-8)Neu5Ac(a2-3)[Gal(b1-3)GalNAc(b1-4)]Gal(b1-4)Glc
# Procedure, shortened: as §1
# [11] = biological target: Neu5Ac(a2-8)Neu5Ac(a2-8)Neu5Ac(a2-3)[GalNAc(b1-4)]Gal(b1-4)Glc
# Procedure, shortened: as §1
# [12] = biological target: Neu5Ac(a2-8)Neu5Ac(a2-8)Neu5Ac(a2-8)Neu5Ac(a2-3)[GalNAc(b1-4)]Gal(b1-4)Glc
# Procedure, shortened: as §1
# [13] = biological target: Neu5Ac(a2-8)Neu5Gc(a2-3)Gal(b1-4)GlcNAc
# Procedure, shortened: as §1
# [14] = biological target: Neu5Ac(b2-6)Gal(b1-4)GlcNAc
# Procedure, shortened: as §1
# [15] = biological target: Neu5Ac(b2-6)GalNAc
# Procedure, shortened: as §1
# [16] = biological target: Neu5Ac9Ac(a2-3)Gal(b1-3)GlcNAc
# Procedure, shortened: as §1
# [17] = biological target: Neu5Ac9Ac(a2-3)Gal(b1-4)GlcNAc
# Procedure, shortened: as §1
# [18] = biological target: Neu5Ac9Ac(a2-6)Gal(b1-4)GlcNAc
# Procedure, shortened: as §1
# [19] = biological target: Neu5Gc(a2-3)Gal(b1-3)GlcNAc
# Procedure, shortened: as §1
# [20] = biological target: Neu5Gc(a2-3)Gal(b1-3)[Fuc(a1-4)]GlcNAc
# Procedure, shortened: as §1
# [21] = biological target: Neu5Gc(a2-3)Gal(b1-4)Glc
# Procedure, shortened: as §1
# [22] = biological target: Neu5Gc(a2-3)Gal(b1-4)GlcNAc
# Procedure, shortened: as §1
# [23] = biological target: Neu5Gc(a2-3)Gal(b1-4)GlcNAc(b1-3)Gal(b1-4)GlcNAc(b1-2)Man(a1-3)[Neu5Gc(a2-3)Gal(b1-4)GlcNAc(b1-3)Gal(b1-4)GlcNAc(b1-2)Man(a1-6)]Man(b1-4)GlcNAc(b1-4)GlcNAc
# Procedure, shortened: as §1
# [24] = biological target: Neu5Gc(a2-3)Gal(b1-4)[Fuc(a1-3)]GlcNAc
# Procedure, shortened: as §1
# [25] = biological target: Neu5Gc(a2-6)Gal(b1-4)GlcNAc
# Procedure, shortened: as §1
# [26] = biological target: Neu5Gc(a2-6)GalNAc
# Procedure, shortened: as §1
# [27] = biological target: Neu5Gc(a2-8)Neu5Ac(a2-3)Gal(b1-4)GlcNAc
# Procedure, shortened: as §1
# [28] = biological target: Neu5Gc(a2-8)Neu5Gc(a2-3)Gal(b1-4)GlcNAc
# Procedure, shortened: as §1
# [29] = biological target: Neu5Gc(a2-8)Neu5Gc(a2-3)Gal(b1-4)GlcNAc(b1-3)Gal(b1-4)GlcNAc
# Procedure, shortened: as §1
# [30] = biological target: Neu5Gc(a2-8)Neu5Gc(a2-6)Gal(b1-4)GlcNAc
# Procedure, shortened: as §1
# [31] = biological target: Neu5Gc(b2-6)Gal(b1-4)GlcNAc
# Procedure, shortened: as §1
binder,measurement,setting,value
B1,glycan array binding signal (z-score),[1],-0.211
same,glycan array binding signal (z-score),[2],-0.455
same,glycan array binding signal (z-score),[3],5.08
same,glycan array binding signal (z-score),[4],-0.371
same,glycan array binding signal (z-score),[5],-0.632
same,glycan array binding signal (z-score),[6],-0.228
same,glycan array binding signal (z-score),[7],-0.273
same,glycan array binding signal (z-score),[8],-0.269
same,glycan array binding signal (z-score),[9],-0.588
same,glycan array binding signal (z-score),[10],-0.448
same,glycan array binding signal (z-score),[11],-0.15
same,glycan array binding signal (z-score),[12],-0.598
same,glycan array binding signal (z-score),[13],0.008
same,glycan array binding signal (z-score),[14],-0.364
same,glycan array binding signal (z-score),[15],-0.386
same,glycan array binding signal (z-score),[16],-0.4
same,glycan array binding signal (z-score),[17],-0.551
same,glycan array binding signal (z-score),[18],-0.538
same,glycan array binding signal (z-score),[19],-0.092
same,glycan array binding signal (z-score),[20],-0.75
same,glycan array binding signal (z-score),[21],-0.435
same,glycan array binding signal (z-score),[22],-0.319
same,glycan array binding signal (z-score),[23],-0.257
same,glycan array binding signal (z-score),[24],-0.005
same,glycan array binding signal (z-score),[25],-0.077
same,glycan array binding signal (z-score),[26],-0.493
same,glycan array binding signal (z-score),[27],0.402
same,glycan array binding signal (z-score),[28],-0.473
same,glycan array binding signal (z-score),[29],-0.196
same,glycan array binding signal (z-score),[30],0.345
same,glycan array binding signal (z-score),[31],0.358
